According to ChEMBL document CHEMBL4888484, “Replenishing the malaria drug discovery pipeline: Screening and hit evaluation of the MMV Hit Generation Library 1 (HGL1) against asexual blood stage Plasmodium falciparum ,using a nano luciferase reporter read-out” (2022):
Screen size: about 150,000 compounds; about 540 (0.36%) showed an effect of 50% or more. The list shows a part of the results.

Tested on: Plasmodium falciparum
Assay: Primary screen in NF54 nanoGlo assay, in single point, at 2uM, 72h; a lower Z score goes with more inhibition
Assay type: functional, Erythrocyte
Details: timepoint 72 hour

| SMILES | % Inhibition [%] | Z score |
| --- | --- | --- |
| O=C(CN1CCC[C@H](O)C1)NCc1ccco1 | -14 | 1.39 |
| O=C(CCN1CCOCC1)Nc1ccc2c(c1)OCO2 | -13 | 2.45 |
| COc1ccccc1C(=O)N1CCN(c2ccccc2OC)C(=O)[C@@H]1C | 1 | -0.09 |
| Cc1nc2c(c(N3CCC(C(=O)NC4CCCC4)CC3)n1)CCOCC2 | -3 | 0.27 |
| CCCc1cc(C(=O)N[C@@H](C)C(=O)Nc2ccc(C)cc2F)ccn1 | -5 | 0.93 |
| COc1cccc(S(=O)(=O)N2CC[C@@]3(CCC(=O)N3Cc3ccncc3)C2)c1 | 4 | -0.54 |
| Cc1ccc(-c2noc(-c3ccccc3S(=O)(=O)N3CCN(c4ccc(Cl)cc4)CC3)n2)cc1 | -9 | 1.06 |
| CN1CCN(c2nc(-c3ccccc3)no2)CC1=O | 1 | -0.21 |
| O=S1(=O)C[C@H](NC2CCCCC2)[C@@H](S(=O)(=O)c2ccccc2)C1 | 1 | -0.08 |
| Cc1ccc2c(C(=O)NS(=O)(=O)[C@H]3CCOC3)csc2c1 | -4 | 0.84 |
| C[C@@H]1CN(c2cc(N3CCOCC3)ncn2)CC[C@]1(C)O | -7 | 0.92 |
| O=C1N(CC2CCC2)CCC[C@@]12CCN(Cc1cc(C3CC3)on1)C2 | -16 | 1.7 |
| COC[C@](C)(CCO)NC(=O)c1ccccn1 | -11 | 1.58 |
| O=C1NCCN([C@H]2CCCN(Cc3ccccc3)C2)C1=O | -12 | 1.59 |
| O=C(NC1CCCC1)c1ccc2c(c1)nc1n2CCCC1 | 0 | -0.06 |
| COc1cccc(-c2cc(C(=O)N3CC[C@H](Oc4ccc5ccccc5n4)C3)n(C)n2)c1 | -5 | 0.87 |
| CC(=O)Nc1nc(CC(=O)NC2CCCCCC2)cs1 | 8 | -0.9 |
| COc1ccc(C(=O)N2CCC3(CC2)C[C@@H](Oc2ncccn2)CCO3)cn1 | -4 | 0.84 |
| COc1ccc(N2CCN(C(=O)c3snc(-c4ccc(C)cc4)c3N)CC2)cc1 | -14 | 1.64 |
| Cc1noc(C)c1CCc1nc([C@H]2CCOC2)nn1-c1ccncc1 | -5 | 0.51 |
| O=C(c1cc2cc(C3(O)CCNCC3)ccc2o1)N1CCc2ccccc2C1 | -9 | 1.74 |
| CC(=O)c1ccc(N2CCN(C(=O)[C@H](C)NC(=O)c3ccco3)CC2)cc1 | -2 | 0.17 |
| Cc1cnc(C(=O)N2CCCC[C@H]2C(=O)Nc2cccc(-c3nnc(C)s3)c2)cn1 | -6 | 0.71 |
| CS(=O)(=O)N(CCCN1CCOCC1)[C@H]1CCN(Cc2cccc(Cl)c2)C1 | 2 | -0.41 |
| COCC(=O)NC1CCC(NC(=O)c2csc(COc3cc(C)ccc3C(C)C)n2)CC1 (stereo not given) | 33 | -0.65 |
| Cc1ccc(CNCc2cc3c(cc2OC(F)F)OCO3)nc1 | 7 | -0.95 |
| CC(=O)Nc1nc(CN2CCN3CCOc4cccc2c43)cs1 | -2 | 0.21 |
| CC[C@H](NC(=O)CCc1nncn1C)c1cc(C)ccn1 | -6 | 0.93 |

| SMILES | % Inhibition [%] | Z score |
| --- | --- | --- |
| CNC(=O)NC(=O)[C@H](C)Nc1cc(C)c(Cl)cc1OC | 13 | -1.79 |
| CCn1ncnc1CNC(=O)N1CCC[C@](C)(O)C1 | -2 | 0.31 |
| O=C(Nc1ccc(Oc2ccccc2)cc1)c1sc2ccccc2c1Cl | 6 | -0.7 |
| CCNc1cc(CNC(=O)N2CCC(CO)CC2)ccn1 | 30 | -3.44 |
| O=C(CCc1ccc(F)c(Cl)c1)N1CC(n2cc(C3CC3)nn2)C1 | -7 | 0.87 |
| Cc1ccc(N(C)S(=O)(=O)c2ccsc2C(=O)NC2CCC(C)CC2)cc1C (stereo not given) | -5 | 0.88 |
| CCc1n[nH]c(NC(=O)c2ncncc2Cl)c1Br | -37 | 4.38 |
| CC(C)c1nc2ccc(C(=O)NCc3cccc(F)c3)cc2o1 | -17 | 1.55 |
| CCn1cc(-c2nc(-c3ccc(C)c(OC)c3)no2)cn1 | -8 | 1.5 |
| Cc1cc(=O)n(CC(=O)Nc2cc(F)ccc2C)c(N2CCCCC2)n1 | 0 | -0.02 |
| COc1nn(C)cc1NC(=O)NCc1ncc(Br)cn1 | -2 | 0.24 |
| CCc1nc(N)sc1C(=O)N1CCC[C@H](C(=O)Cc2ccccc2)C1 | -6 | 0.79 |
| Cc1ccc2[nH]nc(CNC(=O)COCC(F)(F)C(F)F)c2c1 | -8 | 1.6 |
| O=C(NCc1ccco1)[C@H]1CCCN(S(=O)(=O)c2c[nH]c(C(=O)N3CCCC3)c2)C1 | 4 | -0.72 |
| O[C@H]1CN(Cc2ccsc2)C[C@@H]1F | -15 | 1.47 |
| COCC1CCN(C(=O)C[C@H]2CN(C(C)C)CCO2)CC1 | -5 | 0.67 |
| CN(CCc1ccncc1)C[C@@H](O)Cc1ccc2ccccc2c1 | -5 | 0.44 |
| Cc1csc(NC(=O)c2cccc(CN3CC[C@H](O)C3)c2)n1 | -5 | 0.87 |
| COCCN1CCN(C2CCN(c3cccc(-c4ccccc4)c3)CC2)CC1 | -6 | 1.18 |
| CCc1nc(C(=O)N2CCOC3CCCCC32)c[nH]1 (stereo not given) | -9 | 1.41 |
| Cc1nc(NC(=O)C(C)N2CCOC(Cn3cccn3)C2)sc1C (stereo not given) | -6 | 1.02 |
| CCOc1ccc(-c2nsc(NC(=O)COc3c(C)cccc3C)n2)cc1OC | 0 | 0 |
| Cc1cc2ccccc2c(N2CCN(CC(C)O)C(C)C2)n1 (stereo not given) | -4 | 0.38 |
| CCCNC(=O)N(C)CCc1noc(C(=O)NCc2ccc3c(c2)OCO3)n1 | -22 | 2.05 |
| C1CCCCCC2(CCCCC1)OC[C@H](CN1CCCCC1)O2 | 8 | -1.05 |
| CCN1CC(NS(=O)(=O)CC2CCCC2(F)F)CC1=O (stereo not given) | 25 | -2.81 |
| C[C@H](O)c1nc2cc(NC(=O)c3cncn3C)ccc2[nH]1 | -21 | 3.61 |
